85 molecules from ChEMBL document CHEMBL4888484, “Replenishing the malaria drug discovery pipeline: Screening and hit evaluation of the MMV Hit Generation Library 1 (HGL1) against asexual blood stage Plasmodium falciparum ,using a nano luciferase reporter read-out” (2022) can be followed below.

About 540 (0.36%) of roughly 150,000 compounds showed an effect of 50% or more. This is one part of the list.

The assay concerns Plasmodium falciparum. The experiment in a line: Primary screen in NF54 nanoGlo assay, in single point, at 2uM, 72h; a lower Z score goes with more inhibition. In kind it is functional, Erythrocyte. To be noted: timepoint 72 hour.
Usually % Inhibition stands for the change of the read-out against control, counted positive when it falls. On to `Cc1ccc(NC(=O)Cn2nc3c(N4CCN(c5ccccc5)CC4)nccn3c2=O)cc1F`, for which the “% Inhibition” value was -16% and the Z score worked out at 1.56.
As to `Cc1ccc(C)c(C(=O)Nc2cnc(-n3nc(C)cc3C)nc2)c1`, the “% Inhibition” value was found to be 5% and the Z score is reported as -0.75.
For the molecule `CCn1nc(CN2CCC[C@H](NC(=O)c3cc(C)on3)C2)c2c1CCOC2`, the “% Inhibition” value was 2% and the Z score was -0.27.
On to `COc1ccc(NC(=O)C(C)(C)N(Cc2ccco2)C(=O)CC2C(c3c(C)[nH]c4ccccc34)C2(C)C)cc1` (stereo not given), for which the “% Inhibition” value is recorded as -36% and the Z score worked out at 4.26.
Taken in the same sequence, the figures for `CCc1cc(N2CCN(C(=O)c3ccc4[nH]nnc4c3)CC2)ncn1` were 10% and -1.39.
Taken in the same sequence, the figures for `CC(C)CC(C)(C)C(=O)N1CCC([C@H]2CCNC2)CC1` were 5% and -0.81.
Taken in the same sequence, the figures for `COC(=O)c1cn(-c2nc(C)c3c(n2)CCC3)nn1` were -6% and 0.88.
With `CCC(NC(=O)c1cccc(F)c1O)[C@H]1C[C@H](O)C1` (stereo not given in full), the “% Inhibition” value is -13% and the Z score is listed as 1.28.
In the same order, the values of `CN(Cc1ccccc1)[C@@H]1COC2(C1)CN(C(=O)Cc1cccnc1)C2` are -12% and 1.84.
In the same order, the values of `CCNC(=O)NC(=O)[C@H](C)Nc1ccc(C)c(OCC(F)F)c1` are -11% and 1.85.
In the same order, the values of `CC[C@H]1C(=O)NCCN1CCCS(=O)(=O)C(C)C` are -2% and 0.41.
Take `Cc1cccc(Nc2nc(-c3ccco3)c(C#N)c(=O)[nH]2)c1`: the “% Inhibition” value is reported as -47% and the Z score is given as 5.51.
Turning to `CCc1c(-c2nc(C(C)(C)C)no2)cnn1C(CC)CC`, the “% Inhibition” value was -2% and the Z score is recorded as 0.17.
In the same order, the values of `Cc1cccc(N(C)C(=O)c2ncoc2C(C)C)n1` are -7% and 1.04.
In the same order, the values of `Cc1cc(=O)cc(C(=O)N2CCC(Oc3cccc(Cl)c3)CC2)n1C` are -5% and 1.02.
Taken in the same sequence, the figures for `COCCN1CCN(Cc2cc(-c3ccccc3)[nH]n2)CC1=O` were -10% and 1.29.
Turning to `CC(C)(C)c1nnc(CN2CCCc3ccccc32)o1`, the “% Inhibition” value stood at 15% and the Z score is -1.94.
In the same order, the values of `O=C(NCCOc1ccc2c(c1)OCO2)[C@@H]1CCCN1Cc1ccc(F)cc1` are 2% and -0.45.
Taken in the same sequence, the figures for `COC[C@H]1CCCN1S(=O)(=O)NCCC(C)(C)OC` were -9% and 1.21.
In the same order, the values of `CCN1CCCN(C(=O)c2ccc3c(c2)OCCCO3)CC1` are -11% and 1.38.
In the case of `CS(=O)(=O)c1ccc(C(=O)N2CC3CC3C2)cc1` (stereo not given), the “% Inhibition” value is -16% and the Z score is given as 2.16.
`O=C(Nc1cc(S(=O)(=O)N2CCOCC2)ccc1N1CCOCC1)c1ccc2ncsc2c1`: the “% Inhibition” value is given as -5% and the Z score was determined as 0.83.
Taken in the same sequence, the figures for `O[C@@H]1Cc2ccccc2[C@@H]1n1cnc(-c2ccccc2)c1-c1ccncc1` were 8% and -1.13.
In the same order, the values of `O=C(c1ncoc1C1CC1)N1CC[C@@]2(CCCN(Cc3ccc(F)c(F)c3)C2)C1` are 4% and -0.72.
`CC(C)c1nnc([C@H]2CN(C(=O)c3cccc(Cl)c3)CC23CCOCC3)o1`: the “% Inhibition” value was -4% and the Z score is listed as 0.82.
In the same order, the values of `N#CCN1C(=O)[C@@H]2CCCN2c2ccc(S(=O)(=O)N3CCOCC3)cc21` are -3% and 0.44.
Taken in the same sequence, the figures for `O=C(Nc1ncc(Cc2ccc(F)cc2)s1)N1CCC2CCC(C1)[S+]2[O-]` (stereo not given) were 13% and -1.54.
Taken in the same sequence, the figures for `Cc1cc([C@@H](O)CNC(=O)NCc2ccccc2)c(C)o1` were -2% and 0.23.
For `Cn1cc(C(=O)N[C@@H]2COCC[C@@H]2OCc2cscn2)cn1`, the “% Inhibition” value is -14% and the Z score turned out to be 2.29.
In the same order, the values of `COc1ccc([C@H]2C(=O)N(C3CCCCCC3)CC(=O)N2Cc2ccccc2)cc1` are -9% and 1.11.
Turning to `COCCc1noc(C2(c3ccc(F)cc3)CC2)n1`, the “% Inhibition” value is given as -8% and the Z score worked out at 0.79.
Taken in the same sequence, the figures for `Cc1ccsc1[C@@H](O)CNC(=O)COc1ccccc1` were -15% and 2.65.
In the same order, the values of `Clc1cnc(NCc2cnn3c2CCCC3)nc1` are -11% and 1.35.
As to `O=S(=O)(Nc1noc(-c2ccsc2)n1)c1cccs1`, the “% Inhibition” value is -10% and the Z score came to 1.33.
Turning to `O=C(NCc1cccnc1)[C@@H]1COC2(CCN(C(=O)c3ccc(F)cc3)CC2)N1C(=O)c1ccc(F)cc1`, the “% Inhibition” value is recorded as 6% and the Z score is reported as -0.97.
In the same order, the values of `CCN(CC)CCn1c2ccccc2n2cc(-c3ccc(Br)cc3)nc12` are 31% and -8.72.
In the same order, the values of `CC1(C)C[C@@H]1C(=O)NC1CCCCCCC1` are 0% and 0.
In the same order, the values of `COc1cc(-c2ccno2)ccc1S(=O)(=O)Nc1cccc(F)c1` are -10% and 1.67.
As for `Cc1nc(NC[C@H]2CCCN(C(C)C)C2)cc(-c2cccnc2)n1`, the “% Inhibition” value is reported as -3% and the Z score amounted to 0.56.
Taken in the same sequence, the figures for `Cc1ccc(-c2nn(Cn3nc(C)c(Cl)c3C)c(-c3ccc(C)cc3)c2Cl)cc1` were 25% and -2.86.
In the same order, the values of `CO[C@H]1C[C@H]2CN(C(=O)Nc3cccc(C(F)(F)F)c3)CC(=O)N2C1` are -5% and 0.72.
Taken in the same sequence, the figures for `Cc1nc2nc(-c3cccs3)nn2c(C)c1CC(=O)N1CCOCC1` were 5% and -0.6.
Take `COc1ccc(CCc2n[nH]c(C)c2NC(=O)c2ccccc2F)cc1`: the “% Inhibition” value worked out at 0% and the Z score is given as 0.
In the same order, the values of `COc1cc(NC(=O)c2cc(C)n3nc(C)cc3n2)cc(OC)c1OC` are 10% and -1.54.
Taken in the same sequence, the figures for `Cc1ccc(CNC2C3CCOC3C23CCCC3)cn1` (stereo not given) were 6% and -0.57.
Take `CCc1nc2c(s1)[C@@H](NCc1cc(C)on1)CCC2`: the “% Inhibition” value is -3% and the Z score was determined as 0.37.
For `CCc1c(C)cc(C(=O)N[C@H]2CCOC[C@@H]2O)c(=O)n1C`, the “% Inhibition” value is reported as -8% and the Z score is listed as 1.49.
Taken in the same sequence, the figures for `O=C(C[C@H](c1cccc(C(F)(F)F)c1)c1cn(Cc2ccc(F)cc2)c2ccccc12)NCc1ccco1` were -10% and 1.16.
As for `Cn1ccnc1[C@H]1CCN(C(=O)NCC2CCN(Cc3ccncc3)CC2)C1`, the “% Inhibition” value is -7% and the Z score is 0.76.
Taken in the same sequence, the figures for `CN(C)C(=O)c1cncc(N(C)CCCN2CCOCC2)n1` were -1% and 0.18.
Taken in the same sequence, the figures for `CCS(=O)(=O)NC[C@H](C)NCc1csc(N)n1` were -3% and 0.36.
With `CCc1nc(C)c(C(=O)NC(C)(C)c2nnc(N)s2)o1`, the “% Inhibition” value is reported as -19% and the Z score was determined as 1.79.
Taken in the same sequence, the figures for `Cc1nc(NC(=O)CC(C)(C)C)sc1C` were 9% and -0.84.
Turning to `Cc1cnccc1CCNC1C2CCOC2C12CCCC2` (stereo not given), the “% Inhibition” value worked out at 11% and the Z score is -1.57.
Taken in the same sequence, the figures for `CCn1ncc2ccc(N[C@H]3CCOC4(CCOCC4)C3)cc21` were -4% and 0.77.
Turning to `CC(C)c1nccn1CCN1CCC(O)CC1`, the “% Inhibition” value is -3% and the Z score came out at 0.5.
In the same order, the values of `COc1ccc(-c2noc(COc3ccc(C)nc3C)n2)c(OC)c1OC` are 11% and -1.84.
Taken in the same sequence, the figures for `Cn1nc(CN(C(=O)Nc2ccccc2)C2CCCC2)c2c1CCC2` were -13% and 2.52.
As to `O=C(c1cc2cc(F)ccc2s1)N1CC(Nc2cccnn2)C1`, the “% Inhibition” value is -10% and the Z score turned out to be 1.12.
In the case of `C[C@H]1CCCCN1S(=O)(=O)N1CCN(Cc2ccno2)CC1`, the “% Inhibition” value is -9% and the Z score stood at 1.01.
Taken in the same sequence, the figures for `CC1CC(NC(=O)C2(C)CC3CC3C2)C1` (stereo not given) were -12% and 1.34.
In the same order, the values of `Cc1csc([C@H](C)NC(=O)CCCN2CCCCC2)n1` are 9% and -1.3.
With `O=C(C1CCC1)N1CC[C@H](N2C(=O)CNC2=O)C1`, the “% Inhibition” value was -12% and the Z score turned out to be 2.35.
Regarding `Nc1nc(-c2cccc3cccnc23)c2cn[nH]c2n1`, the “% Inhibition” value is -17% and the Z score is given as 1.5.
In the case of `Cc1ccc(-c2nnc(-c3cccc(S(C)(=O)=O)c3)o2)o1`, the “% Inhibition” value is -11% and the Z score came to 1.82.
In the same order, the values of `O=C1C[C@H]2CC[C@@H](CN1)N2C(=O)c1ccc2[nH]c(=O)[nH]c2c1` are -9% and 1.7.
In the same order, the values of `O=C(Nc1cccnc1)C1CN(C(=O)COc2ccccc2F)C1` are -5% and 0.81.
Regarding `C[C@@H](CO)NC(=O)Nc1cccc(Cl)c1F`, the “% Inhibition” value is given as -13% and the Z score was determined as 1.18.
For `CC(C)c1ncc(NC(=O)c2cc(Br)cn2C)cn1`, the “% Inhibition” value was determined as 9% and the Z score was -1.21.
Taken in the same sequence, the figures for `Cc1cccc(N2CCN(S(=O)(=O)c3cc(C(=O)N4CCC(C)CC4)cs3)C[C@@H]2C)c1` were -8% and 1.44.
In the same order, the values of `CCC1(CC)CN(C(=O)c2ccc(OC(C)C)cn2)C1` are -8% and 1.51.
In the same order, the values of `CCOc1c(CNC)cc(Br)cc1OC` are 2% and -0.27.
Take `CC[C@@H](COC)NC(=O)c1ccccc1OC`: the “% Inhibition” value is given as -6% and the Z score was determined as 0.67.
Turning to `Cc1ccccc1Cn1cnc2c1c(=O)n(C1CCCC1)c(=O)n2-c1ccccc1`, the “% Inhibition” value is given as -7% and the Z score is on record as 0.85.
In the same order, the values of `O=S(=O)(Nc1ccc(Cl)cc1-n1cccn1)c1cccc(F)c1` are -1% and 0.16.
In the case of `O=C(c1cc[nH]n1)N(Cc1ccccc1F)C1CCC1`, the “% Inhibition” value is recorded as 10% and the Z score was -1.54.
Taken in the same sequence, the figures for `COc1ccc(OC)c(-c2c(C#N)c(O)nc3c2c(C)nn3-c2ccccc2)c1` were 0% and -0.07.
As for `Cc1ccc(-c2nc3cccnc3n2CCCNS(=O)(=O)c2c(C)cc(C)cc2C)cc1`, the “% Inhibition” value is 24% and the Z score was -3.11.
In the same order, the values of `CCN(CC)CCN(CCC(F)(F)F)C(=O)[C@H]1CCCN(C(=O)c2ccc(F)cc2)C1` are -2% and 0.24.
In the same order, the values of `COc1ccccc1C[C@H](NC(=O)N1CCCCO1)C(C)C` are 1% and -0.05.
With `CCn1nc(C(=O)O)c2c1CC[C@H](N(C)Cc1nc3cc(C)ccc3[nH]1)C2`, the “% Inhibition” value was -20% and the Z score was 2.62.
Taken in the same sequence, the figures for `COc1ccccc1-c1noc([C@@H]2CCCN2C(=O)c2ccccc2C)n1` were -5% and 0.78.
In the same order, the values of `COc1ccc(CNCC2(N(C)C)CCCCC2)cc1OC[C@@H](O)CN1CCCC1` are -14% and 1.88.
Take `CC1(c2nccc(NC(=O)c3ccoc3C3CC3)n2)CC1`: the “% Inhibition” value stood at 7% and the Z score is on record as -1.33.
Taken in the same sequence, the figures for `O=C1CN(Cc2ccccc2F)C2CS(=O)(=O)CC2N1c1ccc(Br)cc1` (stereo not given) were -13% and 1.66.
